The list shows a part of the results.
Experiments:
HSkMC = human skeletal muscle cells; assay: cytotoxicity call (relative viability < 0.9); settings: 10 µM
HepG2 = assay: cytotoxicity call (relative viability < 0.9); settings: 10 µM
S. aureus RN4220 = assay: growth inhibition call (relative growth <= 0.2); settings: 50 µM

C[C@@H]1CN([C@H](C)CO)C(=O)c2cc(NC(=O)Nc3ccccc3)ccc2O[C@@H](C)CCCCO[C@@H]1CN(C)C(=O)c1ccccc1
inactive: cytotoxicity call (HSkMC) | cytotoxicity call (HepG2) | growth inhibition call (S. aureus RN4220)

CN(C)CCC(=O)N1CCNCC1
inactive: cytotoxicity call (HSkMC) | cytotoxicity call (HepG2) | growth inhibition call (S. aureus RN4220)

C[C@H](CO)N1C[C@H](C)[C@@H](CN(C)C(=O)Nc2ccc(C(F)(F)F)cc2)OCc2cnnn2CCCC1=O
inactive: cytotoxicity call (HSkMC) | cytotoxicity call (HepG2) | growth inhibition call (S. aureus RN4220)

C[C@@H]1CN([C@@H](C)CO)C(=O)c2cccc(NS(C)(=O)=O)c2O[C@H]1CN(C)C(=O)Nc1ccc2c(c1)OCO2
inactive: cytotoxicity call (HSkMC) | cytotoxicity call (HepG2) | growth inhibition call (S. aureus RN4220)

C[C@@H]1CN([C@@H](C)CO)C(=O)c2cc(Br)cnc2O[C@H]1CN(C)Cc1cccc(C(=O)O)c1
inactive: cytotoxicity call (HSkMC) | cytotoxicity call (HepG2) | growth inhibition call (S. aureus RN4220)

C[C@H]1CN([C@@H](C)CO)C(=O)Cc2cc(NC(=O)Nc3ccccc3)ccc2O[C@@H]1CN(C)S(=O)(=O)c1cn(C)cn1
inactive: cytotoxicity call (HSkMC) | cytotoxicity call (HepG2) | growth inhibition call (S. aureus RN4220)

Nc1[nH]ncc1Cl
inactive: cytotoxicity call (HSkMC) | cytotoxicity call (HepG2) | growth inhibition call (S. aureus RN4220)

O=C(C[C@@H]1CC[C@@H]2[C@H](COC[C@@H](O)CN2S(=O)(=O)c2cccc(F)c2)O1)NCCCN1CCOCC1
inactive: cytotoxicity call (HSkMC) | cytotoxicity call (HepG2) | growth inhibition call (S. aureus RN4220)

CCCCOc1ccc(OCCCN2CCOCC2)cc1.Cl
inactive: cytotoxicity call (HSkMC) | cytotoxicity call (HepG2) | growth inhibition call (S. aureus RN4220)

COc1ccc(S(=O)(=O)N(C)C[C@@H]2Oc3c(NC(=O)c4ccncc4)cccc3C(=O)N([C@H](C)CO)C[C@H]2C)cc1
inactive: cytotoxicity call (HSkMC) | cytotoxicity call (HepG2) | growth inhibition call (S. aureus RN4220)

CN1CCN(C(=O)C[C@H]2CC[C@H]3[C@@H](COc4ccc(NC(=O)c5cscn5)cc4C(=O)N3C)O2)CC1
inactive: cytotoxicity call (HSkMC) | cytotoxicity call (HepG2) | growth inhibition call (S. aureus RN4220)

— the antibiotic and cytotoxicity screens of Wong et al. (2023)
